Results are given in words; binding and its absence hold for the method and conditions named. In cells and extracts the contact can be indirect. Some results given as binding are weak or reduced against the parent protein; the word gives no strength. For part of these data: Where a sequence is shown, tags or fusion partners need not be part of it.
Experiments:
[1] = molecular target: T1, iR2-Δ100 (iRhom2 lacking the N-terminal 100 residues), 3XHA (mouse (from the plasmid name pM6P.Blast-miR2)) (UniProt Q80WQ6); assay: co-IP; HEK293T transiently co-transfected with two tagged proteins for 36-48 h; lysis in 1% Triton X-100, 200 mM NaCl, 50 mM Tris-HCl pH 7.4; anti-HA or anti-FLAG M2 magnetic beads, 4 °C overnight; washes with 500 mM NaCl; immunoblot; in Fig. 4f with tunicamycin (2 µg/ml) for the last 18 h
T1 sequence: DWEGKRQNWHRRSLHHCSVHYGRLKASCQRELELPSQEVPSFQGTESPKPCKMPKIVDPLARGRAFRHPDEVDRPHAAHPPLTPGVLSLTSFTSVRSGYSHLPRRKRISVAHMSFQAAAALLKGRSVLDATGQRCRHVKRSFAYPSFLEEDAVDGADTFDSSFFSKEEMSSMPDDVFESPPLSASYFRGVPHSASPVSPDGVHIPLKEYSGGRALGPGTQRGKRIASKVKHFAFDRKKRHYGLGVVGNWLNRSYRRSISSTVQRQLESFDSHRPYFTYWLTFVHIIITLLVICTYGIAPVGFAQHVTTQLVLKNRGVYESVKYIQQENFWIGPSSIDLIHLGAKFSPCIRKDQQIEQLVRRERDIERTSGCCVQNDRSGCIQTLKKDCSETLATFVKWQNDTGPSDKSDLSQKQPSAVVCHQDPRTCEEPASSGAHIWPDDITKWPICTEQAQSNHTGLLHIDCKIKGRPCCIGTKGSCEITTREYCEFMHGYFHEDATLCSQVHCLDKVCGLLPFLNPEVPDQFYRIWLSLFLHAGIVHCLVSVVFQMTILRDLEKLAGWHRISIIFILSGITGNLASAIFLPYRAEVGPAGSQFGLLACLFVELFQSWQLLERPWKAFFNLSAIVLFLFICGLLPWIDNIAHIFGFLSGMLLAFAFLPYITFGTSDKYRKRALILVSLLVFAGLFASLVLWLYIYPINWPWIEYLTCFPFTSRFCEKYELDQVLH

Amino acid sequences for entries named in this document (tags omitted). Residues count along the entry.
UniProt P11881: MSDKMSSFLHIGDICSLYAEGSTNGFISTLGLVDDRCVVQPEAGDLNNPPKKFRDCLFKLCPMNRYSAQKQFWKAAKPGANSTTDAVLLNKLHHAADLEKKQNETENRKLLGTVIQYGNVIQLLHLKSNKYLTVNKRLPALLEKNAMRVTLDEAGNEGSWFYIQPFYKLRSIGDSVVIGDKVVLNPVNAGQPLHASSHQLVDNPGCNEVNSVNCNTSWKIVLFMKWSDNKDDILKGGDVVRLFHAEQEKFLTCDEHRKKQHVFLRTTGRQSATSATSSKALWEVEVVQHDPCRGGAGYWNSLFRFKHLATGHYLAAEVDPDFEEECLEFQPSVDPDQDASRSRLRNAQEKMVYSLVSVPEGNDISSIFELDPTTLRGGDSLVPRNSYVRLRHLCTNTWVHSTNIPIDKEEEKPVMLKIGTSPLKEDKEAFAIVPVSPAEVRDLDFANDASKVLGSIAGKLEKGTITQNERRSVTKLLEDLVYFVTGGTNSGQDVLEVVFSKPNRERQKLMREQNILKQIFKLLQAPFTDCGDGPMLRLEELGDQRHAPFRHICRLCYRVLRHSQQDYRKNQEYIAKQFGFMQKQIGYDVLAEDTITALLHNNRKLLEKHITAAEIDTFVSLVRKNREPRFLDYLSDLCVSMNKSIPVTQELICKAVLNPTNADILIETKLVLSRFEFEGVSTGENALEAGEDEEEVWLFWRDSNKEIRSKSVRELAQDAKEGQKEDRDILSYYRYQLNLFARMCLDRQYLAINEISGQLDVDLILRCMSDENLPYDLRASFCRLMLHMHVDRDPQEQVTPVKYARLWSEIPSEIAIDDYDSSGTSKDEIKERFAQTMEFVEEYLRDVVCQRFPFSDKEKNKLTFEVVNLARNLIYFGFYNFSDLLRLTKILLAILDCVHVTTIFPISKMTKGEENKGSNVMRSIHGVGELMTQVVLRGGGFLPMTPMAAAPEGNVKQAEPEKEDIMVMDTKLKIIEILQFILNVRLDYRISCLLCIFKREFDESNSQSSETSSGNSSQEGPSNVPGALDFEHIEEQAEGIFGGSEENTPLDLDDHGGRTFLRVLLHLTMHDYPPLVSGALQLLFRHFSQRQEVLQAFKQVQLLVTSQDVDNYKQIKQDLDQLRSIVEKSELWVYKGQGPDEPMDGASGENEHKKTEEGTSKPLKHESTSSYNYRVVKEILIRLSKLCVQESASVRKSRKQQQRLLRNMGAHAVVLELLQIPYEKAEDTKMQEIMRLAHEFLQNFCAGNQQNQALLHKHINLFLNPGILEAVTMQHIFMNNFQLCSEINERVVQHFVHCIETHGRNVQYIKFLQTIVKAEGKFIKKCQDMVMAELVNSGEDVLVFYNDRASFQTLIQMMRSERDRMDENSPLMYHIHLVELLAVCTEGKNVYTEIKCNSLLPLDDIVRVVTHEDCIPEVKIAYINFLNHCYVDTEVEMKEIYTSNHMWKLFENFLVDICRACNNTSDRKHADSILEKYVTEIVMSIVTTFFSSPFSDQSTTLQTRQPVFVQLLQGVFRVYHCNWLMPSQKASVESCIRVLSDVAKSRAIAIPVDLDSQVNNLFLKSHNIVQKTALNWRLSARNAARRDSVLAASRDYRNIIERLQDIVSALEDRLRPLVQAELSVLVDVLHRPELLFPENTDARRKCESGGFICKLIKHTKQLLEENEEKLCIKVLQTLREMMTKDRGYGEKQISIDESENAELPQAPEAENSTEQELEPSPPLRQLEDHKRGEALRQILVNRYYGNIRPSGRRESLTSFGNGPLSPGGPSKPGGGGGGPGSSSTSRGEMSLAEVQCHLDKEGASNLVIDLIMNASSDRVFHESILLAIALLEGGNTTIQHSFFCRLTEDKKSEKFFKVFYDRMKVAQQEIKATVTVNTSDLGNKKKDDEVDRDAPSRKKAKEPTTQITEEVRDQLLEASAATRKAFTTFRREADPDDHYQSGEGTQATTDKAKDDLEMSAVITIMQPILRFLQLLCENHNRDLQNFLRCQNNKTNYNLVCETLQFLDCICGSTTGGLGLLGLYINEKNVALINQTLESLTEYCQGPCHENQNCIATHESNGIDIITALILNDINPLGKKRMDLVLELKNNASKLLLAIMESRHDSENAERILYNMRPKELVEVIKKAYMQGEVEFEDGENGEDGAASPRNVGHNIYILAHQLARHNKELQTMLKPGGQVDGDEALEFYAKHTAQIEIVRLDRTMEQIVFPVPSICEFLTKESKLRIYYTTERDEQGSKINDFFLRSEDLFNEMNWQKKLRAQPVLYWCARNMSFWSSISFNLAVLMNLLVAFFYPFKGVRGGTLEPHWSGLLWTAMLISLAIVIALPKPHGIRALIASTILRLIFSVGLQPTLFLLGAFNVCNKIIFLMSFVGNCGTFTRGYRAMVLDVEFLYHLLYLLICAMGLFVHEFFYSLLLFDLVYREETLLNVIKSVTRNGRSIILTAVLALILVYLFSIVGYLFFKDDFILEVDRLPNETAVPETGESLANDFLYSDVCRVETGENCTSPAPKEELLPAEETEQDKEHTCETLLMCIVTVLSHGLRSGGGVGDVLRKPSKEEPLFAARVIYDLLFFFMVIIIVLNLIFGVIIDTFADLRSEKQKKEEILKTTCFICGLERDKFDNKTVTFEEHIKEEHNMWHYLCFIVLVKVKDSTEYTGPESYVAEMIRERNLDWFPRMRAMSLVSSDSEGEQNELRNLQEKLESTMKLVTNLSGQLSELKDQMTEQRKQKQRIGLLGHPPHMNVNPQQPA
UniProt Q63269: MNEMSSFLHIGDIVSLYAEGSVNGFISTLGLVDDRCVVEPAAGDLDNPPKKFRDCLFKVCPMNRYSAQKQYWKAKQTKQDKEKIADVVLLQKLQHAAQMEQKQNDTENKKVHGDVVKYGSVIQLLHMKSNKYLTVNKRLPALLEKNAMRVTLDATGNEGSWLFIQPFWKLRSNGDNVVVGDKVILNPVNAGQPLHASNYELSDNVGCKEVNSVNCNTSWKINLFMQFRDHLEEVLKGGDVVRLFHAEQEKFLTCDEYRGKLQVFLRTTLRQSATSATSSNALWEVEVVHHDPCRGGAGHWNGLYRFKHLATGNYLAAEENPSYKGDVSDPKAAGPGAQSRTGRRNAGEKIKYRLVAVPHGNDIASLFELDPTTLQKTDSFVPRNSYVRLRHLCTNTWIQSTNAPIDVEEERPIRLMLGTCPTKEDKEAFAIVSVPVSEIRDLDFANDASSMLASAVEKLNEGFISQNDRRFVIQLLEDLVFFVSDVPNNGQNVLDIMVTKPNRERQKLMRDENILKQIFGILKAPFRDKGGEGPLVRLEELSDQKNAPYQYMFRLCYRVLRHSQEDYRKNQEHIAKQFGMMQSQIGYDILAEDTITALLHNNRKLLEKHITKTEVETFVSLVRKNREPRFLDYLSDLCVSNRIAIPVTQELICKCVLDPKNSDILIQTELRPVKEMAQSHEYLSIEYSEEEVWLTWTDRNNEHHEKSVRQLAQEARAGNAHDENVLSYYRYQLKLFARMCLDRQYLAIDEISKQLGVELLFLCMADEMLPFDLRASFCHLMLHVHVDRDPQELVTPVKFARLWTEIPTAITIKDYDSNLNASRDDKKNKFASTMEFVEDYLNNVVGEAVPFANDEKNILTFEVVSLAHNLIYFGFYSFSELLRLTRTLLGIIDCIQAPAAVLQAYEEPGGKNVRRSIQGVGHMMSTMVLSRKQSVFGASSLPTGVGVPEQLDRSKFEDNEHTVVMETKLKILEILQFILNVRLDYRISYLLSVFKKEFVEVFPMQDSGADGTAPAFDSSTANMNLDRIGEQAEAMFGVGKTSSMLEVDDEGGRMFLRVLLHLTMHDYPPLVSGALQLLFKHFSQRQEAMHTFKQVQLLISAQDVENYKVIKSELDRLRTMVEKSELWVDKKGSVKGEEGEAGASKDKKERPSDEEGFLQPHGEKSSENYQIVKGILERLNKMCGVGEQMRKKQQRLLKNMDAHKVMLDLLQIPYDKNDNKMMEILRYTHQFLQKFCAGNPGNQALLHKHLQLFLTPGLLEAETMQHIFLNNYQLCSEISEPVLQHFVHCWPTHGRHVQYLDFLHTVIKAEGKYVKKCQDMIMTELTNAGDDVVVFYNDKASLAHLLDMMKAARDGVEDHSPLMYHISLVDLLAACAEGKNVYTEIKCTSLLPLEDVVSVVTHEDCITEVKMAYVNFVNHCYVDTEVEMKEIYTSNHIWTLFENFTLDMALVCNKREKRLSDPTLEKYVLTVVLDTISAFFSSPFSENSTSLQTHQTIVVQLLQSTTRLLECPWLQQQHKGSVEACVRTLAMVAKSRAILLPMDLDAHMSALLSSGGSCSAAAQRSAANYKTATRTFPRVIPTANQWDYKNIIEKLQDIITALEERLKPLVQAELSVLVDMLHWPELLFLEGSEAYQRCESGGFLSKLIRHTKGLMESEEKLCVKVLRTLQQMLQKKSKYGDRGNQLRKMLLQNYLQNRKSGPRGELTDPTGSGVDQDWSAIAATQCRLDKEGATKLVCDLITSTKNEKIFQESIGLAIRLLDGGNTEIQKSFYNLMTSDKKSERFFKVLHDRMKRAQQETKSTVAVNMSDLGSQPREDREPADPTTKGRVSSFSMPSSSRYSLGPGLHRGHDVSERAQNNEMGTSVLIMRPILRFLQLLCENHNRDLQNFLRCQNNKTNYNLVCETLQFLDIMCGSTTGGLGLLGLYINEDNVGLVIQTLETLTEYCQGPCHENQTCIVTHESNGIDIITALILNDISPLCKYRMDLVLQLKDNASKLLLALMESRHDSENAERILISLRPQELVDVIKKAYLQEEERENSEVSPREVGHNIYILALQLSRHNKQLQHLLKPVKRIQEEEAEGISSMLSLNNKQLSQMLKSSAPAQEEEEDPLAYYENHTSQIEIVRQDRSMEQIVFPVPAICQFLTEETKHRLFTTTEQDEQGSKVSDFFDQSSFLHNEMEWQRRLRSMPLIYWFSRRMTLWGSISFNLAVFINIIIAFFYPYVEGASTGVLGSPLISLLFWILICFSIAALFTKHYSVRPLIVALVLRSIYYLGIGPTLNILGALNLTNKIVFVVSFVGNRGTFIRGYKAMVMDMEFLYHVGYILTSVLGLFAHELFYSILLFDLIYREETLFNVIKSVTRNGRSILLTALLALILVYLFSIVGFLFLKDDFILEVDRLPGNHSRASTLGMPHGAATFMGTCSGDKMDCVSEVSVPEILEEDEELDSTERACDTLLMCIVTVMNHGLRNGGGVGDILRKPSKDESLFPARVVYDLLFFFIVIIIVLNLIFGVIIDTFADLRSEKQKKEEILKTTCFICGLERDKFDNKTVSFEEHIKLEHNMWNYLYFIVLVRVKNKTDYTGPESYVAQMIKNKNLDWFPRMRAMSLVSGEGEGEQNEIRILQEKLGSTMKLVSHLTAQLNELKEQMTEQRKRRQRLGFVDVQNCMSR
UniProt P10415: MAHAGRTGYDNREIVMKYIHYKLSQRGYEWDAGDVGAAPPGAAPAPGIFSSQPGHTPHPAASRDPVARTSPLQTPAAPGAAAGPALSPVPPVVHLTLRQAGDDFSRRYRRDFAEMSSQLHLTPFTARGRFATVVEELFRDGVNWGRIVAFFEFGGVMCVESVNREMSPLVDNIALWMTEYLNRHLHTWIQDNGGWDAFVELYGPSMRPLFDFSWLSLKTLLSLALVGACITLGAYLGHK
UniProt P10417: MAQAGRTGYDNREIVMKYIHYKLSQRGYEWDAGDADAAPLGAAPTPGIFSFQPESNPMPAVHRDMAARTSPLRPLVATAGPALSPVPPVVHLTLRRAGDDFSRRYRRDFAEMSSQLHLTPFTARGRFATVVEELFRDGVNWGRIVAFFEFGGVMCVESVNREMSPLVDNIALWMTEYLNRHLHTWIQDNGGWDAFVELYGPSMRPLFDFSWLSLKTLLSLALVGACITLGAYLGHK
UniProt P70302, residues 23-685: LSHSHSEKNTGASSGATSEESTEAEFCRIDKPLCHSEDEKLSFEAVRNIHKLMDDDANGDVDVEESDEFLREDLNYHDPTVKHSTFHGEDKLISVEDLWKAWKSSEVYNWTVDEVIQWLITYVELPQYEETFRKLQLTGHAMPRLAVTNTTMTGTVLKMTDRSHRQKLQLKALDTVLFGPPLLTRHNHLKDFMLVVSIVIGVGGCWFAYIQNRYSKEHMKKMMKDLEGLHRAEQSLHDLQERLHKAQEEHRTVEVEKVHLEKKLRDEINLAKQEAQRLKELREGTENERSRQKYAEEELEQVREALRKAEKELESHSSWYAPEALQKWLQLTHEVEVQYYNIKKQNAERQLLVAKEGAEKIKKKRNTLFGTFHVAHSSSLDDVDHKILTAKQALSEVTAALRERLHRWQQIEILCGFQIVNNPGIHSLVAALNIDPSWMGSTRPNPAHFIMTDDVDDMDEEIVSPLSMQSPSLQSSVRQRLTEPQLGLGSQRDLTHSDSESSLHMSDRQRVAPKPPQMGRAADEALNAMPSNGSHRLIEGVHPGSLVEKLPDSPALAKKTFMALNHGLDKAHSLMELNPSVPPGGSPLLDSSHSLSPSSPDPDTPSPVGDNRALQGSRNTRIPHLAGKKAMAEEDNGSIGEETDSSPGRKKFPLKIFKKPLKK

[2] = molecular target: T2, iRhom2-HA (wild type, transiently expressed in HEK293T cells) (mouse (from the plasmid name pM6P.Blast-miR2)) (UniProt Q80WQ6); assay: as above
T2 sequence: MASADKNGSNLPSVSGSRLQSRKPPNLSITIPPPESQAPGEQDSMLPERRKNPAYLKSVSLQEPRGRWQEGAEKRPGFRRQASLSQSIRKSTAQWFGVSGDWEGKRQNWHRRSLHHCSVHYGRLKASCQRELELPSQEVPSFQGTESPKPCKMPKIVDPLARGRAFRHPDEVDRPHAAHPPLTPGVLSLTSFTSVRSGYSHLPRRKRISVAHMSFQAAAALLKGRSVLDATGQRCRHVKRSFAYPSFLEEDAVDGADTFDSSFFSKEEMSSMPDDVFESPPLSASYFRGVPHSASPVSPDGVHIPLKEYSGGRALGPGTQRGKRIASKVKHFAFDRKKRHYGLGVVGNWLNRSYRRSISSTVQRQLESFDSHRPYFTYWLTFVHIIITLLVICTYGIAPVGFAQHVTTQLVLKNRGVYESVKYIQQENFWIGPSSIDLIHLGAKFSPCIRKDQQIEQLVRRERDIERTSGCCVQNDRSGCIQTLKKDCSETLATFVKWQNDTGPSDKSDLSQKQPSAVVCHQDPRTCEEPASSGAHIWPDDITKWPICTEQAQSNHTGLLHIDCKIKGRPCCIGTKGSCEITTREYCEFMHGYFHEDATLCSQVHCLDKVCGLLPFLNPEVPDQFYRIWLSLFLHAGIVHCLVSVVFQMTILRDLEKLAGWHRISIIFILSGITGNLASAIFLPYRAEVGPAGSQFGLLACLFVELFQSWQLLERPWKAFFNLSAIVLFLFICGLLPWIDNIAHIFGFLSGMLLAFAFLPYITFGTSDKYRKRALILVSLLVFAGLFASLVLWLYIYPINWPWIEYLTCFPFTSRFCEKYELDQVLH

[3] = molecular target: T3, iRhom1 (tagged, co-IP of Supplementary Fig. 4a) (UniProt Q6PIX5); assay: co-IP; cells expressing tagged iRhom and IP3R3 (Supplementary Fig. 4a); cells and tags not shown
T3 sequence: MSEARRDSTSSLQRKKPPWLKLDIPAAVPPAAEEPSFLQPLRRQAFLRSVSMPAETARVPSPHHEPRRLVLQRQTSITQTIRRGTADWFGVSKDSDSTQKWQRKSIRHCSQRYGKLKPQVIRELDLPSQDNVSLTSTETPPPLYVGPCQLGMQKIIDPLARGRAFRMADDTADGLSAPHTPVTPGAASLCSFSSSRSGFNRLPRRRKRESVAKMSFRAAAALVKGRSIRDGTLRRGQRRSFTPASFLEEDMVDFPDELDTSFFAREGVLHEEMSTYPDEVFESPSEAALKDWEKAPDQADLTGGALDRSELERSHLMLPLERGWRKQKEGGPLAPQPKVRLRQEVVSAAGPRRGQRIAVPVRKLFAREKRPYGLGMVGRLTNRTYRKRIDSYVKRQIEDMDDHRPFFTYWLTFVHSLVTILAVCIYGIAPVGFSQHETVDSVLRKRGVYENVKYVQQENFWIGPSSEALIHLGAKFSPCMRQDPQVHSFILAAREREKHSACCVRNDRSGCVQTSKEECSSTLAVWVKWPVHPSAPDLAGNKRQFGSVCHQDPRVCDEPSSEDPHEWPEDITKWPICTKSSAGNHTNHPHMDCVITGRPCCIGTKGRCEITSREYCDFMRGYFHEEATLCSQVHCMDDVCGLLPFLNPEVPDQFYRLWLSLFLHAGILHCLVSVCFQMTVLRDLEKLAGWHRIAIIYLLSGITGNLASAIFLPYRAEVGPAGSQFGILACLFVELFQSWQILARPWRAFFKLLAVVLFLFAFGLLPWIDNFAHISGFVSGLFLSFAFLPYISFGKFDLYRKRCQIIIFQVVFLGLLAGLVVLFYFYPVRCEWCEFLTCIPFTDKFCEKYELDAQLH

[4] = molecular target: T2, iRhom2-HA (wild type, transiently expressed in HEK293T cells) (mouse (from the plasmid name pM6P.Blast-miR2)); assay: as above
[5] = molecular target: T4, iRhom2-3XHA stably expressed in iRhom1/2 DKO MEFs (mouse (from the plasmid name pM6P.Blast-miR2)) (UniProt Q80WQ6); assay: co-IP; iRhom1/2 DKO MEFs stably expressing HA-tagged iRhom2 forms; endogenous partners; lysis in 1% Triton X-100, 200 mM NaCl, 50 mM Tris-HCl pH 7.4; anti-HA magnetic beads, 4 °C overnight; washes with 500 mM NaCl; immunoblot; in Fig. 6b after 18 h with control or BIRD-2 peptides (10 or 20 µM)
T4 sequence: T2 sequence

[6] = molecular target: T5, HA-iRhom2 (N-terminally HA-tagged, tetracycline-inducible, in iRhom1/2 DKO HEK293T cells) (UniProt Q80WQ6); assay: proximity ligation; iRhom1/2 DKO HEK293T cells with tetracycline-inducible HA-iRhom2, 250 ng/ml doxycycline 24 h, fixed and permeabilised; antibodies to HA and to endogenous IP3R1 or IP3R3; Duolink PLA; dots per cell, induced against uninduced
T5 sequence: T2 sequence

FLAG-IP3R1 = FLAG-IP3R1 (UniProt P11881); assay: co-IP; HEK293T transiently co-transfected with two tagged proteins for 36-48 h; lysis in 1% Triton X-100, 200 mM NaCl, 50 mM Tris-HCl pH 7.4; anti-HA or anti-FLAG M2 magnetic beads, 4 °C overnight; washes with 500 mM NaCl; immunoblot; in Fig. 4f with tunicamycin (2 µg/ml) for the last 18 h
[7] = molecular target: IP3R3 (tagged, co-IP of Supplementary Fig. 4a) (UniProt Q63269); assay: co-IP; cells expressing tagged iRhom and IP3R3 (Supplementary Fig. 4a); cells and tags not shown

FLAG-BCL-2_WT (from UniProt P10415 1-239)
binding [1]: binds | binding [2]: binds

FLAG-IP3R1 (from UniProt P11881 1-2749) (receptor)
binding [2]: binds

GFP-IP3R1 (from UniProt P29994 1-2750) (receptor)
binding [2]: binds

IP3R3 (tagged, co-IP of Supplementary Fig. 4a) (from UniProt Q63269 1-2670) (receptor)
binding [3]: binds | binding [4]: binds

endogenous BCL-2 of MEFs (from UniProt P10417 1-236)
binding [5]: binds

endogenous BCL-XL of MEFs (from UniProt Q64373-1 1-233)
binding [5]: no binding

endogenous IP3R1 of MEFs (from UniProt P11881 1-2749) (receptor)
binding [5]: binds

endogenous IP3R3 of HEK293T cells (from UniProt Q14573 1-2671) (receptor)
binding [6]: binds

endogenous IP3R3 of MEFs (from UniProt P70227 1-2670) (receptor)
binding [5]: binds

endogenous SERCA2 of MEFs (from UniProt O55143 1-1044)
binding [5]: no binding

endogenous STIM1 of MEFs (from UniProt P70302 23-685)
binding [5]: no binding

B1: iRhom2-HA (wild type, transiently expressed in HEK293T cells) (protein, UniProt Q80WQ6 1-827)
chain: T2 sequence
binding (FLAG-IP3R1): binds

B2: iRhom1 (tagged, co-IP of Supplementary Fig. 4a) (protein, UniProt Q6PIX5 1-856)
chain: T3 sequence
binding [7]: binds

Reference: publication PMC8913617
